Reference: the supplement of paper PMC3334620
Over roughly 33,000 sequences, “E-score (-0.5 to 0.5)” has its median near -0.041; the highest 2% begin near 0.37. The list shows a part of the results.

The sequences below were run against T1, Ecm22 (UniProt Q05958) (assay: PBM E-score (8-mer binding enrichment) (E-score (-0.5 to 0.5)); higher = stronger / more preferred TF binding; most listed sequences are background and not binding sites). Conditions: protein concentration: 200 nM; construct: GST-full length.
T1 sequence: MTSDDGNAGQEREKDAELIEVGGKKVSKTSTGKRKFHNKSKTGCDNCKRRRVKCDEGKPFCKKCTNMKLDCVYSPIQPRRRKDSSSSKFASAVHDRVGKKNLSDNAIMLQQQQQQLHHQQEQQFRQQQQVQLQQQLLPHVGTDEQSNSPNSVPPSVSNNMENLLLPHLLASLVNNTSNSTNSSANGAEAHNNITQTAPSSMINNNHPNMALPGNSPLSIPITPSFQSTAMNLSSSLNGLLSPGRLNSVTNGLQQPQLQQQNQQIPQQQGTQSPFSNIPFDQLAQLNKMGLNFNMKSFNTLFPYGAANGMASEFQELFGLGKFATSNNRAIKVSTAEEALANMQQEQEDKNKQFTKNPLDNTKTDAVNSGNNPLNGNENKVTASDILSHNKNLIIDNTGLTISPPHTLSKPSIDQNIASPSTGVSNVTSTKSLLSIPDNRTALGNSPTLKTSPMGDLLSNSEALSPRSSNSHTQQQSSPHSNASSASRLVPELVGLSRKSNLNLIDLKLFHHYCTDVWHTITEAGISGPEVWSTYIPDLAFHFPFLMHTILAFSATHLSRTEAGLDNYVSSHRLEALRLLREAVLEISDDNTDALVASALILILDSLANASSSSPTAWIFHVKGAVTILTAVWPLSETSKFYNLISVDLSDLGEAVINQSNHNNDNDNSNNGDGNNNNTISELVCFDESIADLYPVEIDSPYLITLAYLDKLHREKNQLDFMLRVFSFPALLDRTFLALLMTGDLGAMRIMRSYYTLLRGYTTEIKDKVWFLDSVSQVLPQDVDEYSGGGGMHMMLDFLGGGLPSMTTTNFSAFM
Protocol: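 Universal 'all 10-mer' protein binding microarrays (Agilent AMADID 015681) probed with GST-tagged S. cerevisiae TFs (full-length or DBD) made by in vitro transcription/translation (PURExpress), about 100-200 nM. Bound TF was detected with fluorescent anti-GST. Each ungapped 8-mer (which stands for itself and its reverse complement) is scored by the PBM enrichment score (E-score), a modified Wilcoxon-Mann-Whitney statistic from -0.5 to +0.5, computed with the Universal PBM Analysis Suite. Scale: above 0.35 generally sequence-specific binding.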

Row | Sequence | PBM E-score
1 | ACATTCGC | -0.0728
2 | AAGAGTAG | -0.211
3 | ACCAACGT | 0.0482
4 | TGAGGAAA | -0.0306
5 | CGTGAAGC | -0.113
6 | AAGTGGGT | -0.0664
7 | AAGGACGC | -0.128
8 | ATGAAAAA | -0.158
9 | ACCGGTCT | -0.439
10 | AGTTTCAG | -0.132
11 | ACGGCTAC | 0.183
12 | CAGTTAAG | -0.148
13 | CCGGACCC | 0.0734
14 | CTGTGAAC | 0.0491
15 | GGCCCCTA | -0.346
16 | CTTTAGCC | -0.154
17 | ATAGTGGA | -0.0057
18 | CATCGTGA | 0.108
19 | CGTTCGTC | 0.314
20 | GACAACGA | 0.219
21 | GAGATGCC | 0.0691
22 | ATCAATAC | 0.137
23 | TAGGTCGA | 0.00837
24 | CCCTTATC | -0.302
25 | ATACAACA | -0.0305

Row | Sequence | PBM E-score
26 | GTAGGCTA | -0.0223
27 | AGAGCTCC | -0.289
28 | ACAAACGG | 0.226
29 | ATCGGCAG | -0.124
30 | ACTCACTA | -0.115
31 | CCGGACAG | 0.0392
32 | CATAGAGA | -0.225
33 | CAATTACA | -0.052
34 | ACCACCGC | 0.019
35 | AGACGCTA | -0.209
36 | AATGGCAA | -0.133
37 | CCCGGAAG | -0.269
38 | CCCGCCTC | -0.0945
39 | GGTAGGAC | -0.234
40 | AGGTCACG | -0.237
41 | ATAGCGGC | 0.109
42 | ATATTAGC | 0.13
43 | AATGACAC | -0.156
44 | CCTAGCAC | -0.0753
45 | CTCGACGC | 0.0768
46 | TAAGATTA | -0.115
47 | CCAGATGG | -0.168
48 | CCATCTAC | -0.166
49 | ACTATAGC | -0.0838
50 | ACGTTCAC | 0.105

Row | Sequence | PBM E-score
51 | CTGTACAC | 0.0364
52 | CGGAAATC | 0.111
53 | AGAACTAC | 0.0445
54 | CACCGCTG | -0.099
55 | GAAGCCAA | -0.136
56 | CGCAAAGA | 0.0474
57 | ATTAATGC | 0.0497
58 | ACCCGCTC | 0.00869
59 | GAATGCAC | 0.106
60 | CACAAGAG | -0.0992
61 | GCTGCTCA | -0.13
62 | ATGGATCG | 0.223
63 | ATAGGGAA | -0.121
64 | GGCACTCA | -0.276
65 | CAGCATGC | -0.227
66 | ATGGCTCG | 0.165
67 | CGACAAGA | 0.152
68 | ATCCTTCC | -0.319
69 | TGCGCGCA | 0.0382
70 | CTCACTCA | -0.225
71 | ATGCGGCG | 0.102
72 | AATCCAGA | -0.187
73 | GTCCTGAA | -0.0489
74 | CTGGACAC | -0.132
75 | AACATTCT | -0.0433

Row | Sequence | PBM E-score
76 | AAACTGTT | -0.124
77 | AACTCGTG | 0.228
78 | CAGAAGAA | -0.132
79 | ACTAAAAT | 0.132
80 | TCGGACGA | 0.0599
81 | AGCAACTG | -0.0733
82 | CTATTCCA | -0.167
83 | AATCGCCC | -0.0815
84 | AGGATCAT | -0.00451
85 | GCGGGGTA | -0.0396
86 | AGCCCGGG | -0.299
87 | GCAATCAA | -0.144
88 | CCGCGACA | 0.0746
89 | ATTACCCC | -0.141
90 | TACAATGA | -0.144
91 | GGTGAGGA | 0.0597
92 | CTAAATAA | 0.0723
93 | CGGTCATA | 0.0754
94 | AAGCACGT | -0.0246
95 | TAGCAAGA | -0.121
96 | GCTACTAC | 0.0554
97 | ATTTGGAC | -0.146
98 | ATTGATTG | -0.0716
99 | GCTTTAAC | 0.156
100 | ATAAATTG | 0.117

Row | Sequence | PBM E-score
101 | CGTGAACG | 0.229
102 | CCATTCCC | -0.0912
103 | ACGCTATG | -0.122
104 | CTAGGATA | -0.088
105 | CGTTCACC | 0.298
106 | AAAACGTA | 0.164
107 | GACTTTGC | -0.0126
108 | AAAACATA | 0.139
109 | AGTATCTC | 0.0689
110 | AATACGTG | 0.15
111 | GACGGATC | -0.00709
112 | GCCAGCTA | -0.2
113 | GGCCGGAC | 0.0155
114 | CGGGTGAA | 0.0777
115 | CCCGCGCG | 0.0573
116 | GAGAGAAA | -0.0003
117 | GCTATTCA | -0.0134
118 | GGACCCAA | -0.155
119 | TAACCGTA | 0.375
120 | ATCCAGGG | -0.0947
121 | CGTCGCCA | -0.0557
122 | CTGCCTAC | -0.0406
123 | AGTCCGGG | -0.107
124 | ACACGTTC | -0.0311
125 | TGACATCA | -0.171

Row | Sequence | PBM E-score
126 | AGCCATTA | 0.18
127 | GTCAGCAA | -0.0754
128 | ACCATCGA | 0.00274
129 | AAGAAACC | -0.133
130 | TAATTAGA | -0.143
131 | AATGCCGG | -0.0755
132 | CATAGGCC | -0.0527
133 | GTTGCAAC | 0.236
134 | CTACATAA | -0.143
135 | CTAAAGTC | -0.162
136 | TATAACCA | 0.127
137 | ACTATTAC | 0.212
138 | CCTGGAGC | -0.155
139 | ACATTTGA | -0.158
140 | TAAGCGAA | 0.335
141 | AATCTTGC | -0.0116
142 | ACGGCCGG | 0.151
143 | CCAACCTC | -0.0513
144 | GGCTCAAA | -0.19
145 | ACTCGCCC | -0.269
146 | AAGAGCTA | -0.0558
147 | CTTGGCGA | -0.154
148 | CAAGGATG | -0.157
149 | AGACCAAC | -0.11
150 | GCGATCAC | -0.0638

Row | Sequence | PBM E-score
151 | AAAAATAT | 0.0527
152 | GAAGGCTA | -0.115
153 | CTATGAAC | 0.105
154 | GCTGAAAA | -0.0964
155 | AACACCAC | -0.0951
156 | AGTAGTCA | -0.24
157 | CGGATCCA | 0.0958
158 | AGGTTTAC | 0.00715
159 | AGAGGACT | -0.27
160 | GGGTATCA | -0.196
161 | ATCCGATA | 0.173
162 | AAGTACAA | 0.0494
163 | CTCCCCTC | 0.0164
164 | CACGACAA | 0.09
165 | CTCTTTTC | -0.0338
166 | CTGAGAAA | -0.13
167 | AACACGAA | 0.247
168 | GACGTGTA | -0.129
169 | AAGATGCG | 0.169
170 | CTCCCGGA | 0.0049
171 | ATGCGCGA | 0.175
172 | TCGATCCA | -0.0339
